Source: paper PMC4336329 (PLoS ONE, 2015)
About 14,000 (4.5%) of roughly 310,000 compounds showed an effect of 50% or more. Effects have a minus sign here. This is one part of the list.

Molecular target: human ether-à-go-go-related gene (hERG) potassium channel (human, UniProt Q12809)
Test: primary screen, population patch clamp on CHO cells stably expressing hERG
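Also: peak tail current of the secondary pulse compared with the same well before compound.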

Chain of human ether-à-go-go-related gene (hERG) potassium channel (Q12809 whole entry, looked up): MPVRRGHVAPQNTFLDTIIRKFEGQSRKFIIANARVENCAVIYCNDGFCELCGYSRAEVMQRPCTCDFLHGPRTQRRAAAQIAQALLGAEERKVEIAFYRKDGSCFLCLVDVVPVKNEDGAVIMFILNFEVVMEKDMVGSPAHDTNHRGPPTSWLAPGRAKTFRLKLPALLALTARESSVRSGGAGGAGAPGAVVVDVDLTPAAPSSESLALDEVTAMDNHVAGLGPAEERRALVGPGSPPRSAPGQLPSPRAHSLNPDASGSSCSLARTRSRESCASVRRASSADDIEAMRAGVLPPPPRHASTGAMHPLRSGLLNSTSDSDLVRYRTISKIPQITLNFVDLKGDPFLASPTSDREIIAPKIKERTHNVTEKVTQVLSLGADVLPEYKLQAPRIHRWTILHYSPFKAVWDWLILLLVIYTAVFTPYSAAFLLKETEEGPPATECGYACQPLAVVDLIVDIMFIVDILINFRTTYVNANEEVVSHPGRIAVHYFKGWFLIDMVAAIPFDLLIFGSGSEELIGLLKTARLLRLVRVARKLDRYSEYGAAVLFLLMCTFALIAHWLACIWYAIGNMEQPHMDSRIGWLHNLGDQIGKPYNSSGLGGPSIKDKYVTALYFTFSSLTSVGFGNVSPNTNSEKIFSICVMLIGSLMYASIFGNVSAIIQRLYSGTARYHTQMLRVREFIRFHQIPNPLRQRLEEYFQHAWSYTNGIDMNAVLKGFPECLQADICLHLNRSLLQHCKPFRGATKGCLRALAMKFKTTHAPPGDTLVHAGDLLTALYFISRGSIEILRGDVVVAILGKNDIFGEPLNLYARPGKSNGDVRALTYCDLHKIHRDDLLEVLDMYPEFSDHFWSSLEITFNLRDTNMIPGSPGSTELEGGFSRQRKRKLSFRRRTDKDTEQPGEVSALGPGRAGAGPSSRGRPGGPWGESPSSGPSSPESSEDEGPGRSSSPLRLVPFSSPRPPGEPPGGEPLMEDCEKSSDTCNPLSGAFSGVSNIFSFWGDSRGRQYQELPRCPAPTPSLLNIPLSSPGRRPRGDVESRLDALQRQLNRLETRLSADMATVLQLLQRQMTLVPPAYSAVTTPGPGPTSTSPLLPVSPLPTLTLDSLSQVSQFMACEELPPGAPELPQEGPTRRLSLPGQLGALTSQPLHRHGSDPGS

Row | SMILES | hERG current change (%, negative = inhibition) at 10uM
1 | NC1=NC(c2ccc(Cl)cc2)N(c2ccc(S(N)(=O)=O)cc2)C(N)=N1 (stereo not drawn) | 21.3%
2 | COCCNC(=O)C1CC2Cn3c(nc4cc5ccccc5cc43)C2N1C (stereo not drawn) | -3.93%
3 | Nc1nnn(CC(=O)N/N=C/c2cn[nH]c2-c2ccccc2)n1 | 11.3%
4 | CCOc1ccc(N(CC(=O)NC2CCCCC2)C(=O)CCCC(=O)Nc2ccccn2)cc1 | -0.443%
5 | CCOC(=O)C(CC(=O)Nc1nc(C(C)=O)c(C)s1)C(C)c1ccccc1 (stereo not drawn) | 2.61%
6 | CC(Sc1nnc(-c2ccccc2F)n1C1CC1)C(=O)N1CCCC1 (stereo not drawn) | 2.73%
7 | COc1cc(=O)[nH]c(SCC(=O)Nc2ccc3ccccc3c2)n1 | 16.8%
8 | CSc1nnc(-c2sccc2OCc2ccccc2)n1C | -13.8%
9 | COc1ccc(/C(C)=N/NC(=O)c2ccc(NS(=O)(=O)c3cccs3)cc2)cc1 | 7.66%
10 | COCCn1c(C)cc(C2=NNC(=NC3CC3)SC2)c1C.Cl | -41.9%
11 | O=C(CN1CCCCCC1=O)OCc1ncc(-c2ccccc2)o1 | 4.36%
12 | CCN(CC)S(=O)(=O)c1cc(NC(=O)CSc2n[nH]c(N)n2)ccc1C | 1.84%
13 | Cl.NC(N)=NNC(=O)c1ccccc1Cl | 7.45%
14 | COc1cc(C(=O)O)c([N+](=O)[O-])c(OC)c1OC | 15%
15 | CC(C)(C)C1CCC(C(=O)NNC(=O)c2ccncc2)CC1 (stereo not drawn) | -2.8%
16 | c1ccc(Oc2ccc(-c3ccnc4nc(N5CCOCC5)nn34)cc2)cc1 | 4.87%
17 | C=C(C)c1cccc(C(C)(C)NC(=O)Nc2ccc(C(C)=O)cc2)c1 | 13.5%
18 | CN(C)S(=O)(=O)c1ccc(NC(=S)NC(=O)C2CCC2)cc1 | 10.3%
19 | COc1ccc(NC2CCCN(C(=O)CCc3ccncc3)C2)cc1OC (stereo not drawn) | 9.17%
20 | O=C(Nc1cc(S(=O)(=O)N2CCOCC2)ccc1OCC(F)(F)F)C1=COCCO1 | -42.8%
21 | COc1cc(/C=N/n2cnn(Cc3ccccc3Cl)c2=S)cc(OC)c1OC | 13.2%
22 | O=C(COc1ccccc1)OCC(=O)N1CCCc2ccccc21 | 6.37%

Row | SMILES | hERG current change (%, negative = inhibition) at 10uM
23 | CCCc1ccc(S(=O)(=O)N/N=C(/C)c2ccc3c(c2)OCO3)cc1 | 3.44%
24 | COc1ccc(-n2c(=O)cc(N3CCCCCC3)[nH]c2=O)cc1 | 7.04%
25 | CN(CC(=O)Nc1ccc(F)c(F)c1F)C(=O)c1ccc(-n2cncn2)cc1 | -63.8%
26 | S=c1[nH]nc(C2CCCCC2)n1/N=C/c1ccccn1 | 25.8%
27 | CCCCCCSc1ccc([C@@H]2[C@@H]3C(=O)N(CC)C(=O)[C@@H]3[C@]3(C(=O)OC)CCCCN23)cc1OC.O=C(O)C(F)(F)F | 4.94%
28 | CCOC(=O)C1=NNC2(c3ccccc3)C(=O)N(c3cccc(Br)c3)C(=O)C12 (stereo not drawn) | -7.85%
29 | NS(=O)(=O)c1cccc(NC(=O)c2ccc3nc[nH]c3c2)c1 | 16.8%
30 | O=c1c2ccccc2n2nnnc2n1-c1ccccc1 | 3.72%
31 | CN(C)c1ccc(C(=O)OCC(=O)N2CCCC2)cc1 | 21.6%
32 | O=C(Nc1ccccc1C(=O)Nc1ccccn1)c1cc(F)c(F)cc1Cl | -15.5%
33 | COCCNc1c2c(nc3c(-c4ccccc4)c(C)nn13)CCC2 | 2.2%
34 | Cc1ccc(-n2c(C)nnc2SCC(=O)N2CCc3ccccc3C2)cc1C | -21.9%
35 | O=C(NCc1ccco1)c1ccc([N+](=O)[O-])cc1Cl | -3.96%
36 | CN(C)c1ccc(CNC2C3CC4CC(C3)CC2C4)cc1.Cl (stereo not drawn) | -12.4%
37 | COc1ccccc1N1CCN(S(=O)(=O)CCNC(=O)c2ccc(OC(C)C)cc2)CC1 | 1.22%
38 | CC(C)(C)[C@]1(O)CCN2C[C@H]3c4ccccc4CCc4cccc(c43)[C@@H]2C1.Cl | -78.3%
39 | CN(CC(=O)Nc1ccc(C(N)=O)cc1)CC(=O)Nc1ccccc1Br | 11%
40 | Cc1cccc(Oc2ncnc(N)c2[N+](=O)[O-])c1C | 7.43%
41 | COCCN(C(=O)CNC(=O)c1ccco1)C(C(=O)NC1CCCC1)c1ccc(OC)cc1 (stereo not drawn) | -10%
42 | COCCNC(=O)c1sc2ncn(CC(=O)N3CCCCC3)c(=O)c2c1C | -0.961%
43 | Cc1ccc(S(=O)(=O)Nc2ccc(C(=O)NCCCN3CCOCC3)cc2)cc1[N+](=O)[O-] | 6.23%
44 | Cc1ccc(OC(C)C(=O)Nc2ccncc2)cc1 (stereo not drawn) | 4.89%

Row | SMILES | hERG current change (%, negative = inhibition) at 10uM
45 | O=C(N1CCCCC1)N1CCN(c2ccc(Cl)cc2)CC1 | -21.9%
46 | CCCCc1nc2ccccc2[nH]1 | 14.2%
47 | CCC(C)(C)C1CCc2[nH]nc(C(=O)NCCN3CCOCC3)c2C1 (stereo not drawn) | -1.47%
48 | Nc1cc2c(cc1C(=O)c1cccc(Br)c1)OCCO2 | -17.6%
49 | CCOc1ccc(N2C(=O)CSC23CCCCC3)cc1 | -3.56%
50 | O=C(Nc1cc(-c2ccccc2)[nH]n1)c1ccccc1F | 6.54%
51 | Cc1cc(C)cc(NC(=S)N2CCN(c3ncc(C(F)(F)F)cc3Cl)CC2)c1 | 3.28%
52 | CC1CCC(C(C)C)C(OC(=O)CSc2nnc(N)s2)C1 (stereo not drawn) | 3.01%
53 | CCc1ccccc1NC(=O)CN1CCN(C(=O)C2CCN(C(=O)/C=C/c3ccccc3)CC2)CC1 | -72.9%
54 | COc1ccc(C)cc1S(=O)(=O)N(C)CC(=O)NCc1ccco1 | 7.99%
55 | Cc1ccc(S(=O)(=O)c2c(C)cc(C)nc2N2CCCC2)cc1 | -34.3%
56 | Cc1ccc(NC(=O)c2cc(S(=O)(=O)N3CCCCC3)ccc2N2CCOCC2)cc1F | -13.9%
57 | CCCOc1ccc(N2C(=O)CC(S/C(N)=N/N=C(\C)c3cccs3)C2=O)cc1 (stereo not drawn) | 2.55%
58 | CC(=O)Oc1ccc(/C(C)=N\N2CCN(Cc3ccc(Cl)cc3)CC2)cc1 | -36.8%
59 | CCN1CCCC1CNCc1cc(OC)c(OC)c(OC)c1.Cl (stereo not drawn) | 1.63%
60 | COc1ccccc1C(=O)c1cc2ccc(O)cc2oc1=O | 15.1%
61 | CN(C)CCSc1nc(-c2ccccc2)nc2c1CCCC2 | -51.3%
62 | Cc1c(Cl)c([N+](=O)[O-])nn1CCCC(=O)Nc1ccc(Cl)cc1Cl | -45.1%
63 | N#Cc1c(NC(=O)CSc2nc(-c3ccco3)cc(C(F)(F)F)n2)sc2c1CCCC2 | 12.3%
64 | O=C1CCCN1CCCNS(=O)(=O)c1ccc(Cl)c(C(=O)N2CCOCC2)c1 | 17%
65 | CC1(C)Cc2c(c(-c3ccco3)nc3sc4c(NCCO)ncnc4c23)CO1 | 14.8%
66 | O=C(COc1coc(CN2CCc3ccccc3C2)cc1=O)N1CCOCC1 | 5.77%

Row | SMILES | hERG current change (%, negative = inhibition) at 10uM
67 | Cc1cc2c(cc1S(=O)(=O)N(C)Cc1ccccc1)OCC(=O)N2 | -6.54%
68 | COc1cc(NC(=O)COc2cc(C)cc3oc(=O)c(C)c(C)c23)cc(OC)c1OC | 31.5%
69 | C/C(CC(=O)Nc1ccccn1)=N\NC(=O)c1ccncc1 | 21.1%
70 | CCn1c(=O)cc(SCC(=O)N2CCC3(CC2)OCCO3)c2ccccc21 | 8.73%
71 | COc1ccc(NC(=O)CSc2ccc3nnc(-c4cccnc4)n3n2)cc1 | -50.4%
72 | C[C@@H]1NC(=O)N[C@@H]1CCCCCC(=O)O | 14.6%
73 | O=C1C(=O)N(CCCn2ccnc2)C(c2ccc([N+](=O)[O-])cc2)/C1=C(\O)c1ccc2c(c1)OCCO2 (stereo not drawn) | 15.9%
74 | COc1ccc(CCC(=O)NCCc2nc3ccccc3[nH]2)cc1 | -8.48%
75 | CCOC(=O)[C@H]1[C@H]2COc3cc(OC)ccc3[C@@H]2N2C(=O)N(c3ccc(Cl)cc3)C(=O)[C@@]12C | -8.04%
76 | CCOCCn1c(CN2CCCC(C)C2)nc2c1c(=O)n(C)c(=O)n2C (stereo not drawn) | 11.7%
77 | COc1ccc(NC2CCCN(C(=O)CCN3Cc4ccccc4C3=O)C2)cc1 (stereo not drawn) | -13.1%
78 | CCCC(=O)c1ccc(N2CCN(C(=O)c3cccs3)CC2)c(F)c1 | -75.1%
79 | Cc1c(-c2ccccc2)nnn1-c1ccc(F)cc1F | -0.308%
80 | Cc1nn(-c2ccccc2)c(C)c1C(=O)OCC(=O)N(C)C1CCS(=O)(=O)C1 (stereo not drawn) | 2.5%
81 | CCCOc1ccc(C(=O)Nc2ccc(S(=O)(=O)N3CCN(C)CC3)cc2)cc1 | 18.6%
82 | O=C(CN1CCN(Cc2ccccc2)CC1)N/N=C/c1ccc(Br)s1 | -60%
83 | Cc1ccc(C(=O)OC(C)CN2CCN(C)CC2)cc1.Cl (stereo not drawn) | 1.69%
84 | CC(C)CCNC(=O)CN(C(=O)CCC(=O)Nc1ccccn1)c1ccc2c(c1)OCO2 | -13.2%
85 | COc1cc(C(=O)Nc2nnc(-c3sccc3C)s2)cc(OC)c1OC | 4.78%
86 | COc1cccc(OC)c1C(=O)Nc1ccc([N+](=O)[O-])cn1 | 1.95%
87 | Cn1c2ccccc2c2nnc(SCc3nnc(-c4ccccc4)o3)nc21 | -27.9%
